# This is one part of the list. These are enrichments in a pooled selection; single values are uncertain.
# T1: EPS15_EH__P42566_121_215
# T1 chain: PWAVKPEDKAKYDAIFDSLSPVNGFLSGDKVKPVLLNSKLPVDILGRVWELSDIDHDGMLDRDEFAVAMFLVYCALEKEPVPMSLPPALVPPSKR
# T2: MSN_FERM_1_P26038_1_322
# T2 chain: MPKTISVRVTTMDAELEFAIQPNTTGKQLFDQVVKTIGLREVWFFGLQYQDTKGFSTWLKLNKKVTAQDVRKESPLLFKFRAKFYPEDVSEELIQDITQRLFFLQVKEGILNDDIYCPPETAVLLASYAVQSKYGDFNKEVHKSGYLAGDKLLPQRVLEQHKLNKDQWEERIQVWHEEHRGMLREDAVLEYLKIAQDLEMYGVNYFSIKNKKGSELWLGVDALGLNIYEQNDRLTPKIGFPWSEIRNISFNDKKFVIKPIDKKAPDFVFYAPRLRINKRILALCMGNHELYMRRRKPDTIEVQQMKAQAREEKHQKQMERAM
# T3: RDX_FERM_1_P35241_5_295
# T3 chain: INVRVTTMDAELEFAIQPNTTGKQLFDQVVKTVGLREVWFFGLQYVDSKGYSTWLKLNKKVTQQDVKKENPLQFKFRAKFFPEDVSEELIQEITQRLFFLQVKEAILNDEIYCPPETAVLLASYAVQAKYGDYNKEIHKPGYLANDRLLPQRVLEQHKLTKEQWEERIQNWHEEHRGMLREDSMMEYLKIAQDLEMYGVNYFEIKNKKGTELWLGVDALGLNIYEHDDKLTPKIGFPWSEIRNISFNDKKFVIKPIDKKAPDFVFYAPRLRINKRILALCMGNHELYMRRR
# Biological target: T1, EPS15_EH__P42566_121_215
# Experiment: mean normalised NGS count of phage-displayed peptide after selection on bait (% of reads); baits are purified protein domains named by gene / domain / UniProt id / residues; peptides come from disordered regions of human proteins; higher = stronger enrichment / binding
# Settings: replicate selections in which the peptide was seen: 6
row,Binder,mean normalised NGS count
1,DFFLQSLYSLMGLDAG [SLC26A1 552-567 mut Q9H2B4.T562M],2.42
2,TSWLMSLENPLSPFSS [TSC2 1206-1221 wt],0.113
3,DIFVQNLVPDWWGPDG [SLC12A3 323-338 mut P55017.R334W],0.404
4,DAYLDSLFDPVLSYGD [MYO15A 2388-2403 wt],0.694
5,LNVAQEQFGGNPFASV [UBQLN2 280-295 mut Q9UHD9.A282V],5.54
6,TSWLMSLENPLSPFSL [TSC2 1206-1221 mut P49815.S1221L],0.62
7,DAYLDSLFDPVLSYGY [MYO15A 2388-2403 mut Q9UKN7.D2403Y],1.16
8,NPFIATSGPGHLSHVP [CHD7 224-239 wt],4.37
9,NPFIATSGPGHLSHMP [CHD7 224-239 mut Q9P2D1.V238M],0.316
10,EAWLLAEIGAVTLVSA [TSEN34 56-71 mut Q9BSV6.R58W],1.38

# Biological target: EZR_FERM_1_P15311_2_295
# Experiment: as above
# Settings: replicate selections in which the peptide was seen: 3
# EZR_FERM_1_P15311_2_295, sequence (chain, as listed by the source): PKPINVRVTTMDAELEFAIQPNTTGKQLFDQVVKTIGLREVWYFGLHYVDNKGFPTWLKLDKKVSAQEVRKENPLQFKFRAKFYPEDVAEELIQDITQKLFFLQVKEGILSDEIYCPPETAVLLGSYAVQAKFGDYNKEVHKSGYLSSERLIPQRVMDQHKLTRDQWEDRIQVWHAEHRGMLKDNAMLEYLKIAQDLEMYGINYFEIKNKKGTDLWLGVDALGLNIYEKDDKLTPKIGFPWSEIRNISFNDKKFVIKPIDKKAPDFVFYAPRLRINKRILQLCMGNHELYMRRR
row,Binder,mean normalised NGS count
1,LFQITTSPGWDGLLAP [SCN9A 1717-1732 mut P35498.A1724P],0.0868
2,KWEPLQQVDTSTRTHN [KRT1 211-226 mut P04264.L214P],0.0761
3,SYSISSILGITSPSAD [PAX5 178-193 mut Q02548.G183S],3.61
4,LFQITTSPGWDGLLAP [SCN10A 1717-1732 mut P35498.A1724P],0.0868
5,LFQITTSPGWDGLLAP [SCN8A 1717-1732 mut P35498.A1724P],0.0868
6,AQQDSYEFVSPSPPAD [BARD1 175-190 wt],42.1
7,LFQITTSPGWDGLLAP [SCN5A 1717-1732 mut P35498.A1724P],0.0868
8,APQTYAEYAISQPLEG [ERCC1 56-71 wt],4.59
9,EYVLQNTSPEGIPTIQ [SYNE1 3345-3360 mut Q8NF91.S3346Y],0.178
10,LFQITTSPGWDGLLAP [SCN1A 1717-1732 mut P35498.A1724P],0.0868
11,LFQITTSPGWDGLLAP [SCN2A 1717-1732 mut P35498.A1724P],0.0868
12,LFQITTSPGWDGLLAP [SCN3A 1717-1732 mut P35498.A1724P],0.0868

# Biological target: T2, MSN_FERM_1_P26038_1_322
# Experiment: as above
# Settings: replicate selections in which the peptide was seen: 6
row,Binder,mean normalised NGS count
1,LFQITTSPGWDGLLAP [SCN9A 1717-1732 mut P35498.A1724P],3.34
2,VFQLPTLNFSPEQVAS [SIX3 79-94 mut O95343.M79V],3.64
3,SYSISSILGITSPSAD [PAX5 178-193 mut Q02548.G183S],3.07
4,FYGVVERPVDISLSPY [SH3BP2 152-167 mut P78314.A155V],0.186
5,LFQITTSPGWDGLLAP [SCN10A 1717-1732 mut P35498.A1724P],3.34
6,LFQITTSPGWDGLLAP [SCN8A 1717-1732 mut P35498.A1724P],3.34
7,LFQITTSPGWDGLLAP [SCN5A 1717-1732 mut P35498.A1724P],3.34
8,GYEVKEDIGVGSYSVA [RPS6KA3 421-436 wt],1.82
9,EEIFHMTYDLASAVVT [HCN1 282-297 mut O60741.R297T],0.134
10,EYVLQNTSPEGIPTIQ [SYNE1 3345-3360 mut Q8NF91.S3346Y],14.4
11,LFQITTSPGWDGLLAP [SCN1A 1717-1732 mut P35498.A1724P],3.34
12,LFQITTSPGWDGLLAP [SCN2A 1717-1732 mut P35498.A1724P],3.34
13,LFQITTSPGWDGLLAP [SCN3A 1717-1732 mut P35498.A1724P],3.34
14,EEIFHMTYDLASAVVT [HCN3 282-297 mut O60741.R297T],0.134

# Biological target: EZR_FERM_1_P15311_2_295
# Experiment: as above
# Settings: replicate selections in which the peptide was seen: 2
row,Binder,mean normalised NGS count
1,YAEYAISQPLEGAGAT [ERCC1 60-75 wt],0.00817
2,FYGVVERPVDISLSPY [SH3BP2 152-167 mut P78314.A155V],0.0589
3,KEQSEKAAMYDIISST [NIPBL 336-351 mut Q6KC79.P351T],0.00527
4,RGFALHAFTFLWDPWN [SCN5A 179-194 mut Q14524.R190W],0.101
5,EYVMSIDSLQLGAAED [CPT1A 486-501 mut P50416.Y498C],0.0887

# Biological target: EPS8_SH3_1_Q12929_534_598 (clone: EPS8L1_SH3_1_Q12929_534_598)
# Experiment: as above
# Settings: replicate selections in which the peptide was seen: 5
row,Binder,mean normalised NGS count
1,MGVPPLPPPAPDYVLP [NR5A1 126-141 mut Q13285.P131L],1.07
2,KPAMDPGLFPMIPDYP [EGR2 212-227 mut P11161.T215M],1.15

# Biological target: NCK1_SH3_1_P16333_5_60
# Experiment: as above
# Settings: replicate selections in which the peptide was seen: 5
row,Binder,mean normalised NGS count
1,MGVPPLPPPAPDYVLP [NR5A1 126-141 mut Q13285.P131L],0.15

# Biological target: EZR_FERM_1_P15311_2_295
# Experiment: as above
# Settings: replicate selections in which the peptide was seen: 4
row,Binder,mean normalised NGS count
1,VFQLPTLNFSPEQVAS [SIX3 79-94 mut O95343.M79V],0.221
2,LPEDTGYYRVTATNTA [TTN 32786-32801 wt],0.485
3,GYEVKEDIGVGSYSVA [RPS6KA3 421-436 wt],0.143
4,EEIFHMTYDLASAVVT [HCN1 282-297 mut O60741.R297T],16
5,EEIFHMTYDLASAVVT [HCN3 282-297 mut O60741.R297T],16

# Biological target: T3, RDX_FERM_1_P35241_5_295
# Experiment: as above
# Settings: replicate selections in which the peptide was seen: 6
row,Binder,mean normalised NGS count
1,VFQLPTLNFSPEQVAS [SIX3 79-94 mut O95343.M79V],0.231
2,SYSISSILGITSPSAD [PAX5 178-193 mut Q02548.G183S],18

# Biological target: T1, EPS15_EH__P42566_121_215
# Experiment: as above
# Settings: replicate selections in which the peptide was seen: 4
row,Binder,mean normalised NGS count
1,NKPDSSPLYIQNPFET [MTPAP 467-482 wt],0.0163
2,DVYARFGEEHSANPFH [ABCA4 1856-1871 wt],1.19
3,SSPLYIQNPFETSLNI [MTPAP 471-486 wt],0.0311
4,NARFGEEHSANPFHWD [ABCA4 1858-1873 mut P78363.Y1858N],0.0162
5,QKSSSHERRAFLQAIL [SMARCA4 1206-1221 wt],0.0549
6,QKSSSHERRAFLQAIL [SMARCA2 1206-1221 wt],0.0549
7,DPEPTNPFQPIASVII [ARL13B 250-265 wt],0.0801

# Biological target: T2, MSN_FERM_1_P26038_1_322
# Experiment: as above
# Settings: replicate selections in which the peptide was seen: 2
row,Binder,mean normalised NGS count
1,KWEPLQQVDTSTRTHN [KRT1 211-226 mut P04264.L214P],1.84
2,APQTYAEYAISQPLEG [ERCC1 56-71 wt],0.0308
3,EYVMSIDSLQLGAAED [CPT1A 486-501 mut P50416.Y498C],0.259

# Biological target: T3, RDX_FERM_1_P35241_5_295
# Experiment: as above
# Settings: replicate selections in which the peptide was seen: 5
row,Binder,mean normalised NGS count
1,KWEPLQQVDTSTRTHN [KRT1 211-226 mut P04264.L214P],6.61

# Biological target: EPS8_SH3_1_Q12929_534_598 (clone: EPS8L1_SH3_1_Q12929_534_598)
# Experiment: as above
# Settings: replicate selections in which the peptide was seen: 3
row,Binder,mean normalised NGS count
1,NVLPIQVDYDAYDAQV [DEPDC5 451-466 mut O75140.A452V],0.824
2,NALPIQVDYDAYDAEV [DEPDC5 451-466 mut O75140.Q465E],0.0151
3,KPATDPGLFPMIPDYP [EGR2 212-227 wt],0.102

# Same assay, conditions: replicate selections in which the peptide was seen: 6
row,Binder,mean normalised NGS count
1,PLPPPAPDYVLPPSLH [NR5A1 130-145 mut Q13285.P131L],52.7
2,PPPPPAPDYVLPPSLH [NR5A1 130-145 wt],10.4

# Biological target: NCK1_SH3_1_P16333_5_60
# Experiment: as above
# Settings: replicate selections in which the peptide was seen: 6
row,Binder,mean normalised NGS count
1,PLPPPAPDYVLPPSLH [NR5A1 130-145 mut Q13285.P131L],1.66
2,PPPPPAPDYVLPPSLH [NR5A1 130-145 wt],31.3

# Biological target: T1, EPS15_EH__P42566_121_215
# Experiment: as above
# Settings: replicate selections in which the peptide was seen: 5
row,Binder,mean normalised NGS count
1,QKSSSHEWRAFLQAIL [SMARCA2 1206-1221 mut P51531.R1213W],37.8
2,VAANKSQSWLAELLRW [SATB2 508-523 mut Q9UPW6.G515S],28.1
3,QKSSSHEWRAFLQAIL [SMARCA4 1206-1221 mut P51531.R1213W],37.8

# Biological target: T2, MSN_FERM_1_P26038_1_322
# Experiment: as above
# Settings: replicate selections in which the peptide was seen: 3
row,Binder,mean normalised NGS count
1,AQQDSYEFVSPSPPAD [BARD1 175-190 wt],0.103

# Biological target: T3, RDX_FERM_1_P35241_5_295
# Experiment: as above
# Settings: replicate selections in which the peptide was seen: 3
row,Binder,mean normalised NGS count
1,EEIFHMTYDLASAVVT [HCN1 282-297 mut O60741.R297T],2.2
2,EEIFHMTYDLASAVVT [HCN3 282-297 mut O60741.R297T],2.2

# Same assay, conditions: replicate selections in which the peptide was seen: 4
row,Binder,mean normalised NGS count
1,EYVLQNTSPEGIPTIQ [SYNE1 3345-3360 mut Q8NF91.S3346Y],8.84
2,RGFALHAFTFLWDPWN [SCN5A 179-194 mut Q14524.R190W],0.0592

# Biological target: T2, MSN_FERM_1_P26038_1_322
# Experiment: as above
# Settings: replicate selections in which the peptide was seen: 5
row,Binder,mean normalised NGS count
1,RGFALHAFTFLWDPWN [SCN5A 179-194 mut Q14524.R190W],1.51

# Reference: the supplement of paper PMC11369174, “Proteome-scale characterisation of motif-based interactome rewiring by disease mutations” (Molecular Systems Biology, 2024)
